Experiment in all cases: protein-binding microarray (PBM)
Holding throughout (details): PBM: ~300 nM protein, 6 mM HEPES pH 7.8, 80 mM KCl, 0.5 mM EDTA, 0.5 mM EGTA, 6% glycerol, 35 ng/ul poly-dIdC, 1% milk, 1 h, room temperature; Ap Aiptasia and Nv Nematostella (sea anemones) / Co Capsaspora / Aq Amphimedon (sponge) / Dm Drosophila / Hu human; RHD is the Rel homology domain; high values mean tight binding; most listed sequences are background and not binding sites; double strand, one strand shown

Experiment [1] has as its target T1, GST-Ap-NF-kB RHD (UniProt A0A913YAJ5).
T1 sequence: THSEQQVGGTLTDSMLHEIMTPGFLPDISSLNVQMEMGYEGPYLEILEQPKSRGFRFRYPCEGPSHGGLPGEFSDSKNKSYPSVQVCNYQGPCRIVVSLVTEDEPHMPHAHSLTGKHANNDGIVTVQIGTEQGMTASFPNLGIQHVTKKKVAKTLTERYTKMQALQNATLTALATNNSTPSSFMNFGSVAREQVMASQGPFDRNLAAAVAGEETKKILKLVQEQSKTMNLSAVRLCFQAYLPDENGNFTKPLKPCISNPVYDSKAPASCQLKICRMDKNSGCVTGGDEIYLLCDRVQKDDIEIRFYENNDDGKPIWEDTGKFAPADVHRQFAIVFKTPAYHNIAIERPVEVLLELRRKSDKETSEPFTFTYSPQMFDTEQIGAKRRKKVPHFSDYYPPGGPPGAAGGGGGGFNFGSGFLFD

Experiment [2] has as its target T2, GST-Nv-NF-kB (Cys allele) (UniProt E5G601).
T2 sequence: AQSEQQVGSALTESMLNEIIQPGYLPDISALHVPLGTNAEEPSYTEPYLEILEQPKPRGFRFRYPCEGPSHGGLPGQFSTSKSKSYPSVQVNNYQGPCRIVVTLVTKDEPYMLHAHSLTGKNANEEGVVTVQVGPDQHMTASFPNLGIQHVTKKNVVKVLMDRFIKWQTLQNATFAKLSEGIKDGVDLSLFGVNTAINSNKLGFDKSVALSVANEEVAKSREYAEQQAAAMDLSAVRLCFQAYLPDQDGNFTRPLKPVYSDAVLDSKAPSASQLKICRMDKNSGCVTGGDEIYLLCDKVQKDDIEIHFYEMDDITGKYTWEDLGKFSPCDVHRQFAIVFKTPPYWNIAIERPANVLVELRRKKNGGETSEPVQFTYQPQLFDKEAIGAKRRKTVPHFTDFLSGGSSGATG

In experiment [3] the target is T3, GST-Aq-NF-kB (UniProt A9Y5G7).
T3 sequence: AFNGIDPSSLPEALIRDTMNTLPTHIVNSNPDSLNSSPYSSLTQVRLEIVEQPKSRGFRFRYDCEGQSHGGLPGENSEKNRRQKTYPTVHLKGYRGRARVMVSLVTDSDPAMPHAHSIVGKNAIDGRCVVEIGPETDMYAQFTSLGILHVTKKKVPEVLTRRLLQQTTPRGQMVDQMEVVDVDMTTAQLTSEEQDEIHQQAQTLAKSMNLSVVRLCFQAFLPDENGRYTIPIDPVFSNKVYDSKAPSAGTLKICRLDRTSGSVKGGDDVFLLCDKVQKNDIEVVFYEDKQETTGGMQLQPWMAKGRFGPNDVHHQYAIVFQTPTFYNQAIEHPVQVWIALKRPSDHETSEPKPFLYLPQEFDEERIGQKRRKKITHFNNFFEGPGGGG

Experiment [4] has as its target T4, GST-Co-NF-kB (UniProt F1ARL5).
T4 sequence: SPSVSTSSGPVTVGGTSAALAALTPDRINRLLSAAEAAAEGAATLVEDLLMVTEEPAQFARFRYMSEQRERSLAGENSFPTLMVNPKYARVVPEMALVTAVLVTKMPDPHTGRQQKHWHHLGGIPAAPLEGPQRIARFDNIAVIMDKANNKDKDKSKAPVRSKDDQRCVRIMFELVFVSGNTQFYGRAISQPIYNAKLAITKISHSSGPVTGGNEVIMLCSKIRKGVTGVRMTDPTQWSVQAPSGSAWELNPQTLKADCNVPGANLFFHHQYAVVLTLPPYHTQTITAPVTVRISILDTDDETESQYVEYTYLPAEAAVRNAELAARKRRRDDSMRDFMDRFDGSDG

The entries are a selection whose mix differs from that of the whole data set. The list includes weakly bound sequences.

On to “CCGATTAACATCACCTGGTCGGGTGATGTTAATCGGGTCTTGATTCGCTTGACGCTGCTG”, for which the binding signal came out at 0.704 z-score in experiment [1], 0.834 z-score in experiment [2] and 0.762 z-score in experiment [3].
Taken in the same sequence, the figures for “CCGATTAACATCAGGGGAATACCTGATGTTAATCGGGTCTTGATTCGCTTGACGCTGCTG” were 9.84 z-score, 11.8 z-score and 10.5 z-score.
With “CCGATTAACATCAGGAAAGAACATGATGTTAATCGGGTCTTGATTCGCTTGACGCTGCTG”, the binding signal is -0.579 z-score in experiment [1], 0.334 z-score in experiment [2], -0.319 z-score in experiment [4] and 0.175 z-score in experiment [3].
In the same order, the values of “CCGATTAACATCAAAATTCCAATTGATGTTAATCGGGTCTTGATTCGCTTGACGCTGCTG” are -1.42 z-score, -0.674 z-score, -0.243 z-score and 0.143 z-score.
Taken in the same sequence, the figures for “CCGATTAACATCACCCATTTCCGTGATGTTAATCGGGTCTTGATTCGCTTGACGCTGCTG” were 0.71 z-score, 0.594 z-score, 1.41 z-score and 0.492 z-score.
Taken in the same sequence, the figures for “CCGATTAACATCAAGTACATTCCTGATGTTAATCGGGTCTTGATTCGCTTGACGCTGCTG” were -0.368 z-score, -0.968 z-score, -0.0276 z-score and 0.319 z-score.
Turning to “CCGATTAACATCACCCACGACGATGATGTTAATCGGGTCTTGATTCGCTTGACGCTGCTG”, the binding signal stood at 0.453 z-score in experiment [1], 0.0827 z-score in experiment [2] and 0.459 z-score in experiment [3].
For “CCGATTAACATCAGGAATTTCTATGATGTTAATCGGGTCTTGATTCGCTTGACGCTGCTG”, the binding signal in experiment [1] was 0.367 z-score; in experiment [2], 0.179 z-score; in experiment [4], 0.417 z-score; in experiment [3] it was 1.23 z-score.
Regarding “CCGATTAACATCACGTTATTTCCTGATGTTAATCGGGTCTTGATTCGCTTGACGCTGCTG”, the binding signal in experiment [1] amounted to 0.283 z-score; in experiment [2], 0.431 z-score; in experiment [4], 0.14 z-score; in experiment [3], 0.714 z-score.
In the same order, the values of “CCGATTAACATCAAGTGATTTCCTGATGTTAATCGGGTCTTGATTCGCTTGACGCTGCTG” are -0.0488 z-score, -0.404 z-score, -0.0331 z-score and 0.57 z-score.
In the same order, the values of “CCGATTAACATCACAAAAATTCCTGATGTTAATCGGGTCTTGATTCGCTTGACGCTGCTG” are -0.11 z-score, 0.54 z-score, 0.621 z-score and 1.5 z-score.
As to “CCGATTAACATCACAGAATTTCCTGATGTTAATCGGGTCTTGATTCGCTTGACGCTGCTG”, the binding signal is 0.392 z-score in experiment [1], -0.0448 z-score in experiment [2], 0.217 z-score in experiment [4] and 1.36 z-score in experiment [3].
In the same order, the values of “CCGATTAACATCACCGAAATTCCTGATGTTAATCGGGTCTTGATTCGCTTGACGCTGCTG” are 0.423 z-score, 0.68 z-score, 0.522 z-score and 0.961 z-score.
Take “CCGATTAACATCACGGAATTGCCTGATGTTAATCGGGTCTTGATTCGCTTGACGCTGCTG”: the binding signal in experiment [1] is -0.449 z-score; in experiment [2] it was -0.777 z-score; in experiment [4] it was -0.401 z-score; in experiment [3], 1.14 z-score.
In the same order, the values of “CCGATTAACATCAGAAATCCCACTGATGTTAATCGGGTCTTGATTCGCTTGACGCTGCTG” are 2.54 z-score, 2.54 z-score, 1.65 z-score and 2.41 z-score.
In the same order, the values of “CCGATTAACATCAAAATTCCAGGTGATGTTAATCGGGTCTTGATTCGCTTGACGCTGCTG” are 0.452 z-score, -0.572 z-score, 0.0807 z-score and 0.749 z-score.
In the same order, the values of “CCGATTAACATCAAAATTCCATATGATGTTAATCGGGTCTTGATTCGCTTGACGCTGCTG” are -0.0851 z-score, -0.259 z-score, -0.664 z-score and 0.415 z-score.
For the sequence “CCGATTAACATCAAGTAAATTCCTGATGTTAATCGGGTCTTGATTCGCTTGACGCTGCTG”, the binding signal in experiment [1] is -0.159 z-score; in experiment [2], 0.631 z-score; in experiment [4], 0.285 z-score; in experiment [3], 1.35 z-score.
For “CCGATTAACATCAGGAGTTTCCATGATGTTAATCGGGTCTTGATTCGCTTGACGCTGCTG”, the binding signal in experiment [1] is -0.0595 z-score; in experiment [2], -0.226 z-score; in experiment [4], -0.325 z-score; in experiment [3], 2.43 z-score.
Taken in the same sequence, the figures for “CCGATTAACATCAAAAAAATTACTGATGTTAATCGGGTCTTGATTCGCTTGACGCTGCTG” were -0.67 z-score, 0.0797 z-score, 0.289 z-score and 0.815 z-score.
Regarding “CCGATTAACATCAAGTAGTTTCCTGATGTTAATCGGGTCTTGATTCGCTTGACGCTGCTG”, the binding signal in experiment [1] is -0.123 z-score; in experiment [2], 0.0909 z-score; in experiment [4], 0.302 z-score; in experiment [3], 0.568 z-score.
Taken in the same sequence, the figures for “CCGATTAACATCAGGAAAAAACATGATGTTAATCGGGTCTTGATTCGCTTGACGCTGCTG” were 0.222 z-score, 0.49 z-score, 0.834 z-score and 0.699 z-score.
Regarding “CCGATTAACATCAACGGGAACTCTGATGTTAATCGGGTCTTGATTCGCTTGACGCTGCTG”, the binding signal in experiment [1] worked out at 2.34 z-score; in experiment [2] it was 1.64 z-score; in experiment [4], 1.78 z-score; in experiment [3], 2.25 z-score.
In the same order, the values of “CCGATTAACATCATAAAAAAAAATGATGTTAATCGGGTCTTGATTCGCTTGACGCTGCTG” are -0.355 z-score, 0.588 z-score, -0.34 z-score and 0.207 z-score.
Taken in the same sequence, the figures for “CCGATTAACATCACGGAGTCCCCTGATGTTAATCGGGTCTTGATTCGCTTGACGCTGCTG” were 6.33 z-score, 4.74 z-score, 2.46 z-score and 4.65 z-score.
As to “CCGATTAACATCAGTATTTTCCATGATGTTAATCGGGTCTTGATTCGCTTGACGCTGCTG”, the binding signal is -0.253 z-score in experiment [1], 0.253 z-score in experiment [2], 0.71 z-score in experiment [4] and 0.73 z-score in experiment [3].
In the same order, the values of “CCGATTAACATCAGGAAATCACATGATGTTAATCGGGTCTTGATTCGCTTGACGCTGCTG” are -0.0739 z-score, 0.214 z-score, 0.266 z-score and 0.484 z-score.
In the same order, the values of “CCGATTAACATCAGTGGTTACCATGATGTTAATCGGGTCTTGATTCGCTTGACGCTGCTG” are 0.0575 z-score, -0.595 z-score, -0.297 z-score and 0.204 z-score.
In the same order, the values of “CCGATTAACATCAGAAAATTCCATGATGTTAATCGGGTCTTGATTCGCTTGACGCTGCTG” are 0.107 z-score, -0.348 z-score, 0.498 z-score and 1.51 z-score.

The values above are taken from paper PMC5700166.
